Results published in the supplement of paper PMC12217912.
This is one part of the list. Sequences were assembled here from the parent chain. Inactive controls read about 0.05.

B1: TEV protease; numbered along this chain (parent)
chain: MGESLFKGPRDYNPISSSICHLTNESDGHTTSLYGIGFGPFIITNKHLFRRNNGTLVVQSLHGVFKVKDTTTLQQHLVDGRDMIIIRMPKDFPPFPQKLKFREPQREERICLVTTNFQTKSMSSMVSDTSCTFPSGDGIFWKHWIQTKDGQCGSPLVSTRDGFIVGIHSASNFTNTNNYFTSVPKNFMELLTNQEAQQWVSGWRLNADSVLWGGHKVFMVKPEEPFQPVKEATQL

Variants of: B1
Assay: raw area under fraction-flipped curve 0-4 h after induction (AUC4h, not background-subtracted), DNA-recorder readout of cleavage of the substrate (dimensionless); higher = more cleavage of the substrate by the protease variant
Conditions: temperature: 34 °C; time window: 0-4 h after rhamnose induction
Experimental: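 In vivo DNA recorder in E. coli TOP10(DE3) ΔrhaA at 34 °C. Each TEVp single-site mutant (parent TEVp 0) is paired with a single-site variant of the 7-mer TEVs (canonical ENLYFQ|S). The substrate sits between flexible linkers in a Bxb1-sfGFP-TEVs-SsrA fusion, so cleavage stabilises Bxb1 and speeds flipping of a recombination array, read by NGS. The value is the raw area under the fraction-flipped curve over 0-4 h after rhamnose induction (AUC4h), with ≥20 reads per time point. It is not background-subtracted; inactive controls average about 0.047.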
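Also: Bxb1 expression induced with 0.2% (w/v) L-rhamnose at OD600 near 0.5, cultures sampled hourly, flipped fraction per protease–substrate barcode pair counted by paired-end Illumina sequencing.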

| Variant | area with substrate ENLYAQS | area with substrate ENLYDQS | area with substrate ENLYEQS | area with substrate ENLYGQS | area with substrate ENLYHQS | area with substrate ENLYIQS | area with substrate ENLYKQS | area with substrate ENLYMQS | area with substrate ENLYNQS | area with substrate ENLYQQS | area with substrate ENLYRQS | area with substrate ENLYSQS | area with substrate ENLYVQS | area with substrate ENLYWQS | area with substrate ENLYLQS | area with substrate ENLYPQS | area with substrate ENLYTQS | area with substrate ENLYYQS | area with substrate ENLYCQS |
| --- | --- | --- | --- | --- | --- | --- | --- | --- | --- | --- | --- | --- | --- | --- | --- | --- | --- | --- | --- |
| S16K | 0.111 | 0.0671 | 0.0727 | 0.0601 | 0.0839 | 0.148 | 0.0475 | 0.101 | 0.0683 | 0.048 | 0.0562 | 0.067 | 0.148 | 0.0969 | – | – | – | – | – |
| P184Y | 0.0693 | – | 0.0565 | 0.0521 | 0.0511 | 0.0547 | – | – | 0.0752 | – | – | 0.0613 | 0.0381 | – | 0.0774 | 0.0612 | – | – | – |
| P184A | 0.0784 | – | 0.0607 | 0.0575 | 0.0649 | 0.108 | 0.0494 | 0.0498 | 0.0623 | 0.0648 | 0.0618 | 0.076 | 0.1 | 0.0722 | 0.0686 | 0.0588 | 0.0718 | 0.0306 | – |
| E108Q | 0.0599 | 0.0563 | 0.0608 | 0.0208 | 0.0601 | 0.0862 | 0.0608 | – | – | – | – | – | 0.0771 | 0.0409 | 0.0452 | 0.061 | 0.058 | 0.0854 | 0.0774 |
| V64A | 0.0794 | 0.067 | 0.0651 | – | 0.0724 | 0.133 | – | 0.0853 | – | – | 0.055 | – | – | 0.078 | – | 0.0751 | – | 0.0576 | – |
| L56F | 0.0688 | 0.0681 | 0.0323 | 0.0641 | 0.0641 | 0.106 | 0.0457 | 0.0646 | 0.0665 | 0.0622 | 0.0897 | 0.0636 | 0.0953 | 0.0627 | 0.0661 | 0.0691 | 0.0754 | 0.0755 | 0.0554 |
| P104V | 0.0855 | 0.0579 | – | 0.0617 | 0.0429 | 0.0932 | 0.0692 | 0.0595 | 0.0679 | – | 0.057 | 0.0688 | 0.0763 | – | – | 0.0629 | 0.068 | 0.0442 | – |
| R81H | 0.0681 | 0.0577 | 0.0465 | – | 0.0643 | 0.0901 | 0.0223 | 0.0411 | 0.0642 | 0.0669 | 0.0551 | 0.0637 | – | 0.0665 | 0.0414 | 0.0681 | 0.0483 | 0.0585 | – |
| G35R | 0.0528 | – | 0.0441 | 0.0582 | 0.0333 | 0.0522 | – | – | 0.0444 | 0.032 | – | – | – | – | – | – | 0.047 | – | – |
| I145T | 0.0585 | 0.0558 | 0.0662 | 0.0661 | 0.0634 | 0.149 | 0.0465 | 0.0622 | 0.0749 | 0.0625 | 0.0491 | 0.0792 | 0.13 | 0.0769 | 0.0872 | 0.0673 | 0.0752 | 0.0349 | – |
| V220Q | 0.07 | 0.0651 | 0.0503 | 0.0609 | 0.0748 | 0.13 | 0.077 | 0.0872 | 0.0663 | 0.0608 | 0.0629 | 0.0771 | 0.0911 | 0.0882 | 0.0876 | 0.0674 | 0.0902 | 0.0812 | 0.0802 |
| A207M | 0.063 | 0.0623 | 0.0762 | – | 0.0623 | – | – | – | 0.0596 | – | – | 0.0697 | 0.131 | 0.0752 | – | 0.065 | 0.0745 | – | – |
| A207S | 0.0644 | 0.0733 | 0.069 | 0.0703 | 0.0748 | – | 0.067 | – | 0.0746 | 0.062 | 0.0635 | 0.0802 | 0.129 | – | 0.0779 | 0.0886 | 0.0813 | – | 0.0948 |
| H21F | 0.0667 | 0.059 | 0.107 | 0.07 | 0.0723 | 0.0979 | 0.0482 | 0.0709 | 0.0607 | – | 0.0645 | – | 0.133 | 0.083 | – | 0.065 | 0.0955 | 0.0534 | – |
| F117L | 0.0713 | – | 0.0682 | – | 0.078 | – | 0.0589 | 0.0972 | – | 0.0583 | 0.0784 | – | – | – | 0.0841 | 0.0796 | – | 0.0507 | 0.0948 |
| A232L | 0.069 | 0.0726 | – | 0.0619 | 0.0608 | 0.119 | 0.0443 | 0.0837 | 0.0685 | 0.0563 | 0.0681 | – | 0.0683 | – | – | 0.0701 | – | 0.0699 | 0.0662 |
| D69G | 0.0832 | – | 0.0656 | 0.0662 | 0.061 | – | – | – | – | 0.0763 | 0.0651 | – | 0.0742 | 0.0721 | – | 0.0609 | – | – | – |
| G136F | 0.0695 | 0.0588 | 0.0668 | – | 0.0695 | 0.114 | 0.0544 | 0.0946 | 0.0724 | – | – | 0.0683 | 0.128 | 0.0887 | 0.0895 | 0.026 | 0.0705 | 0.0781 | – |
| K68R | 0.0785 | 0.0669 | – | 0.0538 | 0.0725 | 0.134 | – | 0.0739 | 0.0662 | 0.0667 | 0.0445 | 0.0638 | 0.1 | – | – | 0.0587 | 0.072 | – | 0.0838 |
| V217W | 0.061 | 0.071 | 0.0458 | 0.0642 | 0.0697 | – | 0.0636 | 0.0493 | 0.0656 | 0.0597 | 0.0609 | – | – | 0.0543 | – | – | – | 0.0648 | – |
| G202F | 0.0606 | 0.0545 | 0.0581 | – | 0.0573 | – | 0.0574 | 0.0714 | 0.0542 | 0.054 | 0.0442 | 0.0578 | – | – | – | – | 0.0727 | 0.0664 | – |
| P134T | 0.0379 | 0.0617 | 0.0574 | 0.0988 | 0.077 | – | – | 0.057 | 0.0683 | – | 0.0402 | – | 0.0924 | – | 0.0636 | 0.0563 | – | 0.0662 | – |
| P134C | 0.0662 | 0.0501 | 0.0676 | 0.0409 | 0.0646 | 0.0926 | – | 0.076 | 0.0658 | 0.0402 | – | 0.0684 | 0.0955 | 0.0744 | 0.0792 | 0.0544 | 0.061 | 0.0507 | – |
| L77F | 0.0605 | 0.0476 | 0.0606 | 0.07 | 0.0666 | 0.0606 | 0.057 | 0.0647 | 0.0671 | 0.0634 | 0.0641 | 0.0555 | 0.0711 | 0.0672 | 0.0612 | 0.0601 | 0.0611 | 0.0586 | 0.0652 |
| T192R | 0.0809 | 0.0687 | 0.0657 | 0.0665 | 0.063 | 0.0869 | 0.0474 | – | 0.0731 | 0.0288 | 0.0666 | 0.0743 | 0.135 | 0.0917 | – | 0.0795 | – | 0.0662 | – |
